Experimental data from US9045506B2, “Diphosphonate compound and a method for preparing the same and an application of the same” (Chengdu Yunke Pharmaceutical Co., Ltd., priority 2010, dated 2015).
The name of at least one read-out is uncertain. Marks after values point to notes of the source that are not given here.

Tests used:
osteoclasts [1] = assay: Osteoclast cell formation, counting of TRAP staining positive cells; type: cell-based, Japanese White Rabbit; conditions: n = 6, x ± s
Method: (§1) The osteoclasts is cultured using a modified Chambers method, the new-born Japanese White Rabbit (1 week-age, provided by Experimental Animal Center of West China Medical Center of Sichuan University) is sacrificed by neck dislocation, and dipped in 75% ethanol for 5 min, long bones are taken out under sterile condition, and soft tissue, periosteum as well as osteoepiphysis on the bone surface are removed in D-Hanks balanced salt solution, clean the bone shaft with α-MEM 2 times, and then cut off the long bone longitudinally in α-MEM full media (containing 15% fetal calf serum, penicillin 100 U/mL, streptomycin […], 25 m MHEPES, pH 7.0-7.2), scrape the medullar cavity of the bone gently until it is clean, and use a pipette (5 mL syringe, 25 G syringe needle) to rinse the medullar cavity repeatedly with culture media, and then the rinse solution is collected and filtered with cell strainer to remove bone fragment, and centrifuged at 1000 rpm for 5 min, the precipitate is suspended by 10 mL α-MEM, a hematocytometer is used for cell counting, the cell density in suspension is adjusted to 1×10^7/mL, and inoculate the cells in 6-well plates, and co-cultured with glass slide or bone slice, after 60 min the culture media was replaced with α-MEM induction culture media (containing 15% fetal bovine serum, 10 nM 1, 25-(OH)2VitD3, penicillin 100 U/mL, streptomycin 100 μg/mL, 25 mM HEPES, pH 7.0-7.2), the culture media is replaced every 3 days.
Each group of osteoclasts is performed with tartrate-resistant acid phosphatase (TRAP) staining, observed in optical microscope, and the TRAP staining positive cells are counted.

osteoclasts [2] = assay: Osteoclastic absorption, resorption pit size on bone slices; type: cell-based, Japanese White Rabbit; conditions: 5 days' culture, n = 6, x ± s
Method: as §1

osteoblasts = assay: Calcium deposition assay (alizarin red method); type: cell-based; conditions: 5 d, n = 4, x ± s
Method: Next, each well is added with 1 mL extract (extract preparation: 800 mL 10% acetic acid with 200 mL anhydrous ethyl alcohol), and extracted for 30 min-45 min, kept in dark, shaken slightly, the absorbance of 450 nm wavelength is measured and recorded. […] As alizarin red S and calcium are linear correlated, the calcium deposition is evaluated according to the alizarin red S concentration.

osteoblasts MG63 = assay: Osteoblast proliferation, MTT method; type: cell-based; conditions: MG63, n = 4, x ± s

Row | SMILES | OC cell formation, TRAP staining positive cells counted (osteoclasts [1]; 10^−5 mol/L, 3 d) | OC cell formation, TRAP staining positive cells counted (osteoclasts [1]; 10^−5 mol/L, 5 d) | OC cell formation, TRAP staining positive cells counted (osteoclasts [1]; 10^−7 mol/L, 3 d) | OC cell formation, TRAP staining positive cells counted (osteoclasts [1]; 10^−7 mol/L, 5 d) | OC cell formation, TRAP staining positive cells counted (osteoclasts [1]; 10^−9 mol/L, 3 d) | OC cell formation, TRAP staining positive cells counted (osteoclasts [1]; 10^−9 mol/L, 5 d) | formation and size of resorption pit of the osteoclast (osteoclasts [2]; 10^−5 mol/L) | formation and size of resorption pit of the osteoclast (osteoclasts [2]; 10^−7 mol/L) | formation and size of resorption pit of the osteoclast (osteoclasts [2]; 10^−9 mol/L) | ARS concentration (osteoblasts; 10^−5 mol/L) [µg/mL] | calcium nodule size (osteoblasts; 10^−5 mol/L) [mm^2] | ARS concentration (osteoblasts; 10^−7 mol/L) [µg/mL] | calcium nodule size (osteoblasts; 10^−7 mol/L) | ARS concentration (osteoblasts; 10^−9 mol/L) [µg/mL] | calcium nodule size (osteoblasts; 10^−9 mol/L) | Cell proliferation (MTT method), absorbance value under 490 nm (osteoblasts MG63; 10^−5 mol/L, 24 h) | Cell proliferation (MTT method), absorbance value under 490 nm (osteoblasts MG63; 10^−5 mol/L, 48 h) | Cell proliferation (MTT method), absorbance value under 490 nm (osteoblasts MG63; 10^−5 mol/L, 72 h) | Cell proliferation (MTT method), absorbance value under 490 nm (osteoblasts MG63; 10^−7 mol/L, 24 h) | Cell proliferation (MTT method), absorbance value under 490 nm (osteoblasts MG63; 10^−7 mol/L, 48 h) | further results
1 | O=c1c2ccccc2[se]n1Cc1ccc(CC(O)(P(=O)(O)O)P(=O)(O)O)cc1 [SC-12, 4-(2-methylbenzo[d][1,2]selenazole-3 (2H)-ketone)-benzyl-1-hydroxyl-methylene diphosphonic acid] | 7 ± 6 | 7 ± 3 | 10 ± 5 | 14 ± 9 | 13 ± 2 | 19 ± 6 | 10.04 ± 1.86 | 82.23 ± 13.39 | 112.99 ± 16.39 | 239 ± 12 | 0.97 ± 0.02 | 365 ± 26 | 1.75 ± 0.16 mm^2 | 445 ± 30 | 2.51 ± 0.17** mm^2 | 0.359 ± 0.011 | 0.395 ± 0.008 | 0.342 ± 0.009 | 0.364 ± 0.009 | 0.462 ± 0.008 | Cell proliferation (MTT method), absorbance value under 490 nm (osteoblasts MG63; 10^−7 mol/L, 72 h): 0.712 ± 0.007; Cell proliferation (MTT method), absorbance value under 490 nm (osteoblasts MG63; 10^−9 mol/L, 24 h): 0.378 ± 0.008; Cell proliferation (MTT method), absorbance value under 490 nm (osteoblasts MG63; 10^−9 mol/L, 48 h): 0.442 ± 0.007; Cell proliferation (MTT method), absorbance value under 490 nm (osteoblasts MG63; 10^−9 mol/L, 72 h): 0.720 ± 0.011
2 | O=c1c2cc(Cl)ccc2[se]n1-c1ccc(CC(O)(P(=O)(O)O)P(=O)(O)O)cc1 [SC-10, 4-(3-carbonyl-5-chlorobenzo[d][1,2]selenazole-2(3H))-benzyl-1-hydroxyl-methylene diphosphonic acid] | 3 ± 3 | 6 ± 5 | 9 ± 4 | 16 ± 5 | 13 ± 3 | 20 ± 8 | 10.52 ± 3.33 | 48.55 ± 9.32 | 96.53 ± 8.54 | 265 ± 18 | 1.12 ± 0.07 | 411 ± 43 | 1.97 ± 0.09* mm^2 | 460 ± 24 | 2.49 ± 0.33** mm^2 | 0.341 ± 0.007 | 0.387 ± 0.009 | 0.328 ± 0.009 | 0.359 ± 0.011 | 0.429 ± 0.011 | Cell proliferation (MTT method), absorbance value under 490 nm (osteoblasts MG63; 10^−7 mol/L, 72 h): 0.614 ± 0.011; Cell proliferation (MTT method), absorbance value under 490 nm (osteoblasts MG63; 10^−9 mol/L, 24 h): 0.355 ± 0.007; Cell proliferation (MTT method), absorbance value under 490 nm (osteoblasts MG63; 10^−9 mol/L, 48 h): 0.421 ± 0.009; Cell proliferation (MTT method), absorbance value under 490 nm (osteoblasts MG63; 10^−9 mol/L, 72 h): 0.698 ± 0.008
3 | O=c1c2ccccc2[se]n1-c1ccc(CCC(P(=O)(O)O)P(=O)(O)O)cc1 [SC-13, 4-(3-carbonylbenzo[d][1,2]selenazole-2(3H))-phenylethyl-methylenediphosphonic acid] | 3 ± 1 | 2 ± 1 | 9 ± 3 | 9 ± 6 | 12 ± 4 | 11 ± 2 | 11.52 ± 2.64 | 92.45 ± 12.28 | 112.11 ± 9.96 | 291 ± 21 | 1.11 ± 0.14 | 419 ± 31 | 1.89 ± 0.07 mm^2 | 447 ± 36 | 2.39 ± 0.26** mm^2 | 0.345 ± 0.008 | 0.385 ± 0.011 | 0.311 ± 0.012 | 0.359 ± 0.010 | 0.422 ± 0.009 | Cell proliferation (MTT method), absorbance value under 490 nm (osteoblasts MG63; 10^−7 mol/L, 72 h): 0.610 ± 0.010; Cell proliferation (MTT method), absorbance value under 490 nm (osteoblasts MG63; 10^−9 mol/L, 24 h): 0.374 ± 0.011; Cell proliferation (MTT method), absorbance value under 490 nm (osteoblasts MG63; 10^−9 mol/L, 48 h): 0.432 ± 0.007; Cell proliferation (MTT method), absorbance value under 490 nm (osteoblasts MG63; 10^−9 mol/L, 72 h): 0.661 ± 0.009
4 | O=C1C2CCCCC2[Se]N1c1ccc(CC(P(=O)(O)O)P(=O)(O)O)cc1 (stereo not drawn) [SC-7, 4-(3-carbonylcyclohexano[d][1,2]selenazole-2(3H))-benzyl-methylene-diphosphonic acid] | 6 ± 2 | 9 ± 2 | 10 ± 2 | 15 ± 4 | 12 ± 3 | 21 ± 6 | 8.50 ± 2.11 | 72.53 ± 9.83 | 103.45 ± 9.67 | 277 ± 41 | 1.09 ± 0.07 | 332 ± 27 | 1.44 ± 0.08 mm^2 | 416 ± 25 | 2.11 ± 0.19** mm^2 | 0.333 ± 0.010 | 0.412 ± 0.012 | 0.317 ± 0.011 | 0.346 ± 0.009 | 0.469 ± 0.008 | Cell proliferation (MTT method), absorbance value under 490 nm (osteoblasts MG63; 10^−7 mol/L, 72 h): 0.618 ± 0.009; Cell proliferation (MTT method), absorbance value under 490 nm (osteoblasts MG63; 10^−9 mol/L, 24 h): 0.366 ± 0.007; Cell proliferation (MTT method), absorbance value under 490 nm (osteoblasts MG63; 10^−9 mol/L, 48 h): 0.461 ± 0.008; Cell proliferation (MTT method), absorbance value under 490 nm (osteoblasts MG63; 10^−9 mol/L, 72 h): 0.631 ± 0.009
5 | O=c1c2cc(Cl)ccc2[se]n1-c1ccc(CC(P(=O)(O)O)P(=O)(O)O)cc1 [SC-9, 4-(3-carbonyl-5-chlorobenzo[d][1,2]selenazole-2(3H))-benzyl-methylene diphosphonic acid] | 10 ± 6 | 7 ± 3 | 10 ± 3 | 14 ± 5 | 12 ± 7 | 19 ± 7 | 11.12 ± 2.65 | 45.72 ± 7.86 | 107.23 ± 9.88 | 329 ± 12 | 1.27 ± 0.07 | 433 ± 19 | 2.11 ± 0.13* mm^2 | 487 ± 15 | 2.61 ± 0.27** mm^2 | 0.347 ± 0.007 | 0.400 ± 0.008 | 0.323 ± 0.010 | 0.363 ± 0.008 | 0.457 ± 0.010 | Cell proliferation (MTT method), absorbance value under 490 nm (osteoblasts MG63; 10^−7 mol/L, 72 h): 0.713 ± 0.011; Cell proliferation (MTT method), absorbance value under 490 nm (osteoblasts MG63; 10^−9 mol/L, 24 h): 0.356 ± 0.008; Cell proliferation (MTT method), absorbance value under 490 nm (osteoblasts MG63; 10^−9 mol/L, 48 h): 0.431 ± 0.008; Cell proliferation (MTT method), absorbance value under 490 nm (osteoblasts MG63; 10^−9 mol/L, 72 h): 0.698 ± 0.008
